Data published in US20240228567A1 (Zymeworks, published 2024).

Target: IL12 receptor on HEK reporter cells stably transfected with genes for the IL12 receptor (UniProt P42701 24-662; Q99665 24-862)
Experiment: cell-based or functional assay

Row | EC50, IL12 RGA, repeat 1 | EC50, IL12 RGA, repeat 2 | Binder
1 | 38.7 nM | 122 nM | Masked IL12 HetFc fusion protein variant 37492 (p40 W15K) (Fc fusion) chain 1: [here human IgG1 Fc with changes without letters]SADGGIWELKKDVYVVELDKYPDAPGEMVVLTCDTPEEDGITWTLDQSSEVLGSGKTLTIQVKEFGDAGQYTCHKGGEVLSHSLLLLHKKEDGIWSTDILKDQKEPKNKTFLRCEAKNYSGRFTCWWLTTISTDLTFSVKSSRGSSDPQGVTCGAATLSAERVRGDNKEYEYSVECQEDSACPAAEESLPIEVMVDAVHKLKYENYTSSFFIRDIIKPDPPKNLQLKPLKNSRQVEVSWEYPDTWSTPHSYFSLTFCVQVQGKSKREKKDRVFTDKTSATVICRKNASISVRAQDRYYSSSWSEWASVPCSGGGGSGGGGSGGGGSNLPVATPDPGMFPCLHHSQNLLRAVSNMLQKARQTLEFYPCTSEEIDHEDITKDKTSTVEACLPLELTKNESCLNSRETSFITNGSCLASRKTSFMMALCLSSIYEDLKMYQVEFKTMNAKLLMDPKRQIFLDQNMLAVIDELMQALNFNSETVPQKSSLEEPDFYKTKIKLCILLHAFRIRAVTIDRVMSYLNAS chain 2: EPKSSDKTHTCPPCPAPEAAGGPSVFLFPPKPKDTLMISRTPEVTCVVVSVSHEDPEVKFNWYVDGVEVHNAKTKPREEQYNSTYRVVSVLTVLHQDWLNGKEYKCKVSNKALPAPIEKTISKAKGQPREPQVYVLPPSRDELTKNQVSLLCLVKGFYPSDIAVEWESNGQPENNYLTWPPVLDSDGSFFLYSKLTVDKSRWQQGNVFSCSVMHEALHNHYTQKSLSLSPGGGGGSGGGGSGGGSGGGSGGGGSGGGGSQVQLVESGGGVVQPGRSLRLSCAASGFTFSSYGMHWVRQAPGKGLEWVAFIRYDGSNKYYADSVKGRFTISRDNSKNTLYLQMNSLRAEDTAVYYCKTHGSHDNWGQGTMVTVSSGGSGGGSGGGSGGGSGGGSGQSVLTQPPSVSGAPGQRVTISCSGSRSNIGSNTVKWYQQLPGTAPKLLIYYNDQRPSGVPDRFSGSKSGTSASLAITGLQAEDEADYYCQSYDRYTHPALLFGTGTKVTVL
2 | 9.51 nM | 6.79 nM | Masked IL12 HetFc fusion protein variant 37475 (p40 E59D_D93H) (Fc fusion) chain 1: [here human IgG1 Fc with changes without letters]SADGGIWELKKDVYVVELDWYPDAPGEMVVLTCDTPEEDGITWTLDQSSEVLGSGKTLTIQVKDFGDAGQYTCHKGGEVLSHSLLLLHKKEDGIWSTHILKDQKEPKNKTFLRCEAKNYSGRFTCWWLTTISTDLTFSVKSSRGSSDPQGVTCGAATLSAERVRGDNKEYEYSVECQEDSACPAAEESLPIEVMVDAVHKLKYENYTSSFFIRDIIKPDPPKNLQLKPLKNSRQVEVSWEYPDTWSTPHSYFSLTFCVQVQGKSKREKKDRVFTDKTSATVICRKNASISVRAQDRYYSSSWSEWASVPCSGGGGSGGGGSGGGGSNLPVATPDPGMFPCLHHSQNLLRAVSNMLQKARQTLEFYPCTSEEIDHEDITKDKTSTVEACLPLELTKNESCLNSRETSFITNGSCLASRKTSFMMALCLSSIYEDLKMYQVEFKTMNAKLLMDPKRQIFLDQNMLAVIDELMQALNFNSETVPQKSSLEEPDFYKTKIKLCILLHAFRIRAVTIDRVMSYLNAS chain 2: EPKSSDKTHTCPPCPAPEAAGGPSVFLFPPKPKDTLMISRTPEVTCVVVSVSHEDPEVKFNWYVDGVEVHNAKTKPREEQYNSTYRVVSVLTVLHQDWLNGKEYKCKVSNKALPAPIEKTISKAKGQPREPQVYVLPPSRDELTKNQVSLLCLVKGFYPSDIAVEWESNGQPENNYLTWPPVLDSDGSFFLYSKLTVDKSRWQQGNVFSCSVMHEALHNHYTQKSLSLSPGGGGGSGGGGSGGGSGGGSGGGGSGGGGSQVQLVESGGGVVQPGRSLRLSCAASGFTFSSYGMHWVRQAPGKGLEWVAFIRYDGSNKYYADSVKGRFTISRDNSKNTLYLQMNSLRAEDTAVYYCKTHGSHDNWGQGTMVTVSSGGSGGGSGGGSGGGSGGGSGQSVLTQPPSVSGAPGQRVTISCSGSRSNIGSNTVKWYQQLPGTAPKLLIYYNDQRPSGVPDRFSGSKSGTSASLAITGLQAEDEADYYCQSYDRYTHPALLFGTGTKVTVL
3 | 0.585 nM | 0.482 nM | Masked IL12 HetFc fusion protein variant 37474 (p40 E86W_D93E) (Fc fusion) chain 1: [here human IgG1 Fc with changes without letters]SADGGIWELKKDVYVVELDWYPDAPGEMVVLTCDTPEEDGITWTLDQSSEVLGSGKTLTIQVKEFGDAGQYTCHKGGEVLSHSLLLLHKKWDGIWSTEILKDQKEPKNKTFLRCEAKNYSGRFTCWWLTTISTDLTFSVKSSRGSSDPQGVTCGAATLSAERVRGDNKEYEYSVECQEDSACPAAEESLPIEVMVDAVHKLKYENYTSSFFIRDIIKPDPPKNLQLKPLKNSRQVEVSWEYPDTWSTPHSYFSLTFCVQVQGKSKREKKDRVFTDKTSATVICRKNASISVRAQDRYYSSSWSEWASVPCSGGGGSGGGGSGGGGSNLPVATPDPGMFPCLHHSQNLLRAVSNMLQKARQTLEFYPCTSEEIDHEDITKDKTSTVEACLPLELTKNESCLNSRETSFITNGSCLASRKTSFMMALCLSSIYEDLKMYQVEFKTMNAKLLMDPKRQIFLDQNMLAVIDELMQALNFNSETVPQKSSLEEPDFYKTKIKLCILLHAFRIRAVTIDRVMSYLNAS chain 2: EPKSSDKTHTCPPCPAPEAAGGPSVFLFPPKPKDTLMISRTPEVTCVVVSVSHEDPEVKFNWYVDGVEVHNAKTKPREEQYNSTYRVVSVLTVLHQDWLNGKEYKCKVSNKALPAPIEKTISKAKGQPREPQVYVLPPSRDELTKNQVSLLCLVKGFYPSDIAVEWESNGQPENNYLTWPPVLDSDGSFFLYSKLTVDKSRWQQGNVFSCSVMHEALHNHYTQKSLSLSPGGGGGSGGGGSGGGSGGGSGGGGSGGGGSQVQLVESGGGVVQPGRSLRLSCAASGFTFSSYGMHWVRQAPGKGLEWVAFIRYDGSNKYYADSVKGRFTISRDNSKNTLYLQMNSLRAEDTAVYYCKTHGSHDNWGQGTMVTVSSGGSGGGSGGGSGGGSGGGSGQSVLTQPPSVSGAPGQRVTISCSGSRSNIGSNTVKWYQQLPGTAPKLLIYYNDQRPSGVPDRFSGSKSGTSASLAITGLQAEDEADYYCQSYDRYTHPALLFGTGTKVTVL

The remaining lines, values behind:

Row | Binder | EC50, IL12 RGA, repeat 1 | EC50, IL12 RGA, repeat 2
4 | Masked IL12 HetFc fusion protein variant 37476 (p40 K84W_D161R) (Fc fusion) chain 1: [here human IgG1 Fc with changes without letters]SADGGIWELKKDVYVVELDWYPDAPGEMVVLTCDTPEEDGITWTLDQSSEVLGSGKTLTIQVKEFGDAGQYTCHKGGEVLSHSLLLLHWKEDGIWSTDILKDQKEPKNKTFLRCEAKNYSGRFTCWWLTTISTDLTFSVKSSRGSSDPQGVTCGAATLSAERVRGRNKEYEYSVECQEDSACPAAEESLPIEVMVDAVHKLKYENYTSSFFIRDIIKPDPPKNLQLKPLKNSRQVEVSWEYPDTWSTPHSYFSLTFCVQVQGKSKREKKDRVFTDKTSATVICRKNASISVRAQDRYYSSSWSEWASVPCSGGGGSGGGGSGGGGSNLPVATPDPGMFPCLHHSQNLLRAVSNMLQKARQTLEFYPCTSEEIDHEDITKDKTSTVEACLPLELTKNESCLNSRETSFITNGSCLASRKTSFMMALCLSSIYEDLKMYQVEFKTMNAKLLMDPKRQIFLDQNMLAVIDELMQALNFNSETVPQKSSLEEPDFYKTKIKLCILLHAFRIRAVTIDRVMSYLNAS chain 2: EPKSSDKTHTCPPCPAPEAAGGPSVFLFPPKPKDTLMISRTPEVTCVVVSVSHEDPEVKFNWYVDGVEVHNAKTKPREEQYNSTYRVVSVLTVLHQDWLNGKEYKCKVSNKALPAPIEKTISKAKGQPREPQVYVLPPSRDELTKNQVSLLCLVKGFYPSDIAVEWESNGQPENNYLTWPPVLDSDGSFFLYSKLTVDKSRWQQGNVFSCSVMHEALHNHYTQKSLSLSPGGGGGSGGGGSGGGSGGGSGGGGSGGGGSQVQLVESGGGVVQPGRSLRLSCAASGFTFSSYGMHWVRQAPGKGLEWVAFIRYDGSNKYYADSVKGRFTISRDNSKNTLYLQMNSLRAEDTAVYYCKTHGSHDNWGQGTMVTVSSGGSGGGSGGGSGGGSGGGSGQSVLTQPPSVSGAPGQRVTISCSGSRSNIGSNTVKWYQQLPGTAPKLLIYYNDQRPSGVPDRFSGSKSGTSASLAITGLQAEDEADYYCQSYDRYTHPALLFGTGTKVTVL | 13.3 nM | 13 nM
5 | Masked IL12 HetFc fusion protein variant 37477 (p40 K84E) (Fc fusion) chain 1: [here human IgG1 Fc with changes without letters]SADGGIWELKKDVYVVELDWYPDAPGEMVVLTCDTPEEDGITWTLDQSSEVLGSGKTLTIQVKEFGDAGQYTCHKGGEVLSHSLLLLHEKEDGIWSTDILKDQKEPKNKTFLRCEAKNYSGRFTCWWLTTISTDLTFSVKSSRGSSDPQGVTCGAATLSAERVRGDNKEYEYSVECQEDSACPAAEESLPIEVMVDAVHKLKYENYTSSFFIRDIIKPDPPKNLQLKPLKNSRQVEVSWEYPDTWSTPHSYFSLTFCVQVQGKSKREKKDRVFTDKTSATVICRKNASISVRAQDRYYSSSWSEWASVPCSGGGGSGGGGSGGGGSNLPVATPDPGMFPCLHHSQNLLRAVSNMLQKARQTLEFYPCTSEEIDHEDITKDKTSTVEACLPLELTKNESCLNSRETSFITNGSCLASRKTSFMMALCLSSIYEDLKMYQVEFKTMNAKLLMDPKRQIFLDQNMLAVIDELMQALNFNSETVPQKSSLEEPDFYKTKIKLCILLHAFRIRAVTIDRVMSYLNAS chain 2: EPKSSDKTHTCPPCPAPEAAGGPSVFLFPPKPKDTLMISRTPEVTCVVVSVSHEDPEVKFNWYVDGVEVHNAKTKPREEQYNSTYRVVSVLTVLHQDWLNGKEYKCKVSNKALPAPIEKTISKAKGQPREPQVYVLPPSRDELTKNQVSLLCLVKGFYPSDIAVEWESNGQPENNYLTWPPVLDSDGSFFLYSKLTVDKSRWQQGNVFSCSVMHEALHNHYTQKSLSLSPGGGGGSGGGGSGGGSGGGSGGGGSGGGGSQVQLVESGGGVVQPGRSLRLSCAASGFTFSSYGMHWVRQAPGKGLEWVAFIRYDGSNKYYADSVKGRFTISRDNSKNTLYLQMNSLRAEDTAVYYCKTHGSHDNWGQGTMVTVSSGGSGGGSGGGSGGGSGGGSGQSVLTQPPSVSGAPGQRVTISCSGSRSNIGSNTVKWYQQLPGTAPKLLIYYNDQRPSGVPDRFSGSKSGTSASLAITGLQAEDEADYYCQSYDRYTHPALLFGTGTKVTVL | 18.5 nM | 21.8 nM
